Results from ChEMBL document CHEMBL1201862, “PubChem BioAssay data set” (2004).
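In this assay, cells in 96-well plates receive the compound at five concentrations for 48 hours. Endpoints are linearly interpolated between the surrounding concentrations. GI50 = concentration required for 50% inhibition of growth.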 Activity calls are given as the source filed them. No stated cut-off is given here; in the data, active = GI50 up to about 1.1 µM and inactive = higher.

Key:
Test in all cases: DTP human tumour cell line panel, 48 h
[1] = test system: M14
[2] = test system: Malme-3M
[3] = test system: Hs-578T
[4] = test system: OVCAR-3
[5] = test system: DU-145
[6] = test system: HOP-62
[7] = test system: NCI-H226
[8] = test system: CAKI-1
[9] = test system: RPMI-8226
[10] = test system: SF-295
[11] = test system: U-251
[12] = test system: COLO 205
[13] = test system: A498
[14] = test system: IGROV-1
[15] = test system: PC-3
[16] = test system: HOP-92
[17] = test system: HL-60
[18] = test system: NCI-H460
[19] = test system: UO-31
[20] = test system: MOLT-4
[21] = test system: K562
[22] = test system: NCI-H522
[23] = test system: NCI-H23
[24] = test system: A549
[25] = test system: HCC 2998
[26] = test system: SK-OV-3
[27] = test system: ACHN
[28] = test system: HT-29
[29] = test system: EKVX
[30] = test system: SK-MEL-28
[31] = test system: SW-620
[32] = test system: NCI/ADR-RES
[33] = test system: KM12
[34] = test system: SF-268
[35] = test system: MDA-MB-435
[36] = test system: 786-0
[37] = test system: SK-MEL-5
[38] = test system: HCT-15
[39] = test system: T47D
[40] = test system: SK-MEL-2
[41] = test system: MDA-MB-231
[42] = test system: LOX IMVI
[43] = test system: UACC-62
[44] = test system: TK-10
[45] = test system: SNB-75
[46] = test system: OVCAR-5
[47] = test system: SF-539
[48] = test system: OVCAR-4
[49] = test system: CCRF-CEM
[50] = test system: MCF7

**Q.** How did the GI50 [1] turn out when `COc1cc2c(cc1OC)-c1[nH]c3ccccc3c1CC(=O)N2` was run?
**A.** Its GI50 is inactive: 37.3 µM.

**Q.** And the GI50 [2]?
**A.** The GI50 was inactive: 31.2 µM.

**Q.** And the GI50 [3]?
**A.** Its GI50 is active: 0.622 µM.

**Q.** And the GI50 [4]?
**A.** The GI50 was inactive: 25.6 µM.

**Q.** And the GI50 [5]?
**A.** The GI50 was inactive: 50 µM.

**Q.** What about the GI50 [6] of the same molecule?
**A.** The GI50 was inactive: 40.3 µM.

**Q.** And the GI50 [7]?
**A.** The GI50 was inactive: 26.6 µM.

**Q.** And the GI50 [8]?
**A.** The GI50 was inactive: 19.4 µM.

**Q.** What about the GI50 [9] of the same molecule?
**A.** Its GI50 is inactive: 48.9 µM.

**Q.** What about the GI50 [10] of the same molecule?
**A.** Its GI50 is inactive: 35.5 µM.

**Q.** What about the GI50 [11] of the same molecule?
**A.** Its GI50 is inactive: 49.4 µM.

**Q.** And the GI50 [12]?
**A.** The GI50 was inactive: 20.9 µM.

**Q.** What about the GI50 [13] of the same molecule?
**A.** The GI50 was inactive: 30.6 µM.

**Q.** What about the GI50 [14] of the same molecule?
**A.** The GI50 was inactive: 7.19 µM.

**Q.** What about the GI50 [15] of the same molecule?
**A.** Its GI50 is inactive: 29.9 µM.

**Q.** What about the GI50 [16] of the same molecule?
**A.** Its GI50 is inactive: > 100 µM.

**Q.** And the GI50 [17]?
**A.** Its GI50 is inactive: > 100 µM.

**Q.** What about the GI50 [18] of the same molecule?
**A.** The GI50 was inactive: 27.7 µM.

**Q.** And the GI50 [19]?
**A.** The GI50 was inactive: 21.9 µM.

**Q.** What about the GI50 [20] of the same molecule?
**A.** The GI50 was inactive: 36.6 µM.

**Q.** What about the GI50 [21] of the same molecule?
**A.** Its GI50 is inactive: 79.3 µM.

**Q.** And the GI50 [22]?
**A.** The GI50 was inactive: 20.6 µM.

**Q.** What about the GI50 [23] of the same molecule?
**A.** Its GI50 is inactive: 19 µM.

**Q.** And the GI50 [24]?
**A.** Its GI50 is inactive: 31.9 µM.

**Q.** What about the GI50 [25] of the same molecule?
**A.** The GI50 was inactive: 27.7 µM.

**Q.** And the GI50 [26]?
**A.** The GI50 was inactive: 47.1 µM.

**Q.** And the GI50 [27]?
**A.** The GI50 was inactive: 22.5 µM.

**Q.** And the GI50 [28]?
**A.** Its GI50 is inactive: 24.9 µM.

**Q.** What about the GI50 [29] of the same molecule?
**A.** The GI50 was inactive: 21 µM.

**Q.** And the GI50 [30]?
**A.** The GI50 was inactive: 31.2 µM.

**Q.** And the GI50 [31]?
**A.** The GI50 was inactive: 59 µM.

**Q.** What about the GI50 [32] of the same molecule?
**A.** The GI50 was inactive: 23.2 µM.

**Q.** What about the GI50 [33] of the same molecule?
**A.** The GI50 was inactive: 20.7 µM.

**Q.** And the GI50 [34]?
**A.** The GI50 was inactive: 52.2 µM.

**Q.** And the GI50 [35]?
**A.** Its GI50 is inactive: 24.2 µM.

**Q.** What about the GI50 [36] of the same molecule?
**A.** The GI50 was inactive: 42.4 µM.

**Q.** What about the GI50 [37] of the same molecule?
**A.** Its GI50 is inactive: 28.4 µM.

**Q.** What about the GI50 [38] of the same molecule?
**A.** The GI50 was 33.5 µM.

**Q.** What about the GI50 [39] of the same molecule?
**A.** Its GI50 is inactive: 71.9 µM.

**Q.** What about the GI50 [40] of the same molecule?
**A.** The GI50 was inactive: 31.8 µM.

**Q.** What about the GI50 [41] of the same molecule?
**A.** Its GI50 is inactive: 70.3 µM.

**Q.** And the GI50 [42]?
**A.** The GI50 was inactive: 26.1 µM.

**Q.** And the GI50 [43]?
**A.** The GI50 was inactive: 27.4 µM.

**Q.** And the GI50 [44]?
**A.** Its GI50 is inactive: 59.4 µM.

**Q.** What about the GI50 [45] of the same molecule?
**A.** The GI50 was inactive: 11.8 µM.

**Q.** What about the GI50 [46] of the same molecule?
**A.** Its GI50 is inactive: 54.2 µM.

**Q.** What about the GI50 [47] of the same molecule?
**A.** Its GI50 is inactive: 26.4 µM.

**Q.** What about the GI50 [48] of the same molecule?
**A.** Its GI50 is inactive: 65 µM.

**Q.** What about the GI50 [49] of the same molecule?
**A.** The GI50 was inactive: > 100 µM.

**Q.** What about the GI50 [50] of the same molecule?
**A.** The GI50 was inactive: 39.4 µM.
